In patent US20220213195A1 (SHANDONG BOAN BIOTECHNOLOGY, published 2022):

How the values were obtained:
[1] = target: T1, TGFβ1 (Sinobiological, catalog number: 10804-HNAC) (UniProt P01137 fragment); test: ELISA, TGFβ1 coated at 0.2 µg/mL, fusion protein 1 µg/mL
T1 construct: Bought recombinant protein; also called TGFβ1 protein

[2] = target: T1, TGFβ1 (Sinobiological, catalog number: …); test: ELISA, TGFβ1 coated at 0.05 µg/mL, fusion protein 1 µg/mL
[3] = target: T1, TGFβ1 (Sinobiological, catalog number: …); test: ELISA, TGFβ1 coated at 0.0125 µg/mL, fusion protein 1 µg/mL

T1 sequence (P01137 279-390 limits assumed): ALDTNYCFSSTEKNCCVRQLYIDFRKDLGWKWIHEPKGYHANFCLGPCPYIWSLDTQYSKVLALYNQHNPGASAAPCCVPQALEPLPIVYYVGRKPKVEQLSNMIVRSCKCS

- OD450 [1]: 3.57 OD450
- OD450 [2]: 1.81 OD450
- OD450 [3]: 0.537 OD450
B1: PLTGB-M7824-IgG1 (other)
heavy: EVQLLESGGGLVQPGGSLRLSCAASGFTFSSYIMMWVRQAPGKGLEWVSSIYPSGGITFYADTVKGRFTISRDNSKNTLYLQMNSLRAEDTAVYYCARIKLGTVTTVDYWGQGTLVTVSS[human IgG1 constant region not listed]GGGGSGGGGSGGGGSGGGGSGIPPHVQKSVNNDMIVTDNNGAVKFPQLCKFCDVRFSTCDNQKSCMSNCSITSICEKPQEVCVAVWRKNDENITLETVCHDPKLPYHDFILEDAASPKCIMKEKKKPGETFFMCSCSSDECNDNIIFSEEYNTSNPD
light: QSALTQPASVSGSPGQSITISCTGTSSDVGGYNYVSWYQQHPGKAPKLMIYDVSNRPSGVSNRFSGSKSGNTASLTISGLQAEDEADYYCSSYTSSSTRVFGTGTKVTVLGQPKANPTVTLFPPSSEELQANKATLVCLISDFYPGAVTVAWKADGSPVKAGVETTKPSKQSNNKYAASSYLSLTPEQWKSHRSYSCQVTHEGSTVEKTVAPTECS
notes: Control made in-house: Avelumab variable regions, with TGFβRII linked to the heavy chain by (G4S)4G; expressed in HEK293 cells; also called control bifunctional fusion protein
